Assay results from PubChem BioAssay AID1508624 (National Center for Advancing Translational Sciences (NCATS), 2021).
Out of some 48,000 compounds screened, about 120 (0.25%) were called active. Inconclusive results (about 4%) are left out. Calls come from the whole dose curve; as a rule, active = well fitted activation curve with a large enough effect; inconclusive = small, poorly fitted or top-dose-only effect, or another doubt; inactive = no such curve, though single readings can be large or run the other way. The list shows a part of the results.

experiment: Primary qHTS for Identification of Small Molecule Activators of Huntingtin-Antisense Promoter Activity; settings: HEK293 HTT-AS promoter firefly luciferase reporter, 24 h; series mostly up to 57.5 µM; activity change, positive = activation: at the top concentration; note: nearly all actives have a fitted effect of over 55% in size
Method in brief: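 Firefly luciferase readout (Dual-Glo, 10 min RT) after 24 h, 37 °C compound exposure (final up to 57.5 uM) of HEK293 reporter cells cultured 24 h beforehand; PTC124 at 50 uM final as control inhibitor; activity scaled vehicle 0%, zero RLU -100%.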

Activity change, positive = activation, inactive:
Cc1ccc(NC(=O)CSc2nc(-c3ccco3)cc(C(F)(F)F)n2)c(C)c1 -23.5%, COc1cccc2cc(C(=O)Nc3ccc(CC(=O)O)cc3)c(=O)oc12 -90.3%, CCCCN1CC(c2nc3ccccc3n2CCCCOc2cc(C)cc(C)c2)CC1=O (stereo unspecified) -46%, CCOc1ccc(S(=O)(=O)N2Cc3ccccc3CC2C(=O)Nc2ccc(NC(C)=O)cc2)cc1 (stereo unspecified) -18.5%, CCN(CC)CCNC(=O)C(=O)Nc1c2c(nn1-c1ccc(F)cc1)CSC2 -12.9%, CCN(C(=O)CCc1nc(-c2ccc(C)cc2)no1)c1cccc(C(F)(F)F)c1 -25.2%, CCc1ccc(NC(=O)CSc2nnc3[nH]c(=O)cc(-c4ccccc4)n23)cc1 34.1%, CCOC(=O)c1c(C)[nH]c(CCC(=O)Nc2ccccc2C(F)(F)F)c1C -16%, O=C(CCS(=O)(=O)c1cc2c(cc1Cl)NC(=O)CO2)NCCc1ccccc1 -7.15%, COc1ccc(C(=O)Nc2ccc(S(=O)(=O)Nc3cc(C)nc(C)n3)cc2)cc1 -3.09%, CCCS(=O)(=O)N1CC(=O)N(c2cccc(F)c2)C(C)(C(=O)NC2CCCCCC2)C1 (stereo unspecified) -2.64%, COc1cc(CNc2ccc3[nH]c(=O)[nH]c3c2)ccc1OCc1ccc(F)cc1Cl -1.51%, COc1ccc(CN2CCc3c(c(=O)n4ncc(C(=O)N5CCN(c6ccccc6F)CC5)c4n3C)C2)cc1 -24.5%, COC(=O)c1ccc2c(=O)n3nc(Nc4ccc(F)cc4F)sc3nc2c1 7.49%, CS(=O)(=O)N(Cc1ccccc1)c1ccc(C(=O)Nc2cccc(Cl)c2)cc1 -47.8%, COc1ccc(CNC(=O)c2ccc3c(O)c(S(=O)(=O)c4ccccc4)c(=O)[nH]c3c2)cc1 -9.15%, Cc1cc(NS(=O)(=O)c2ccc(N)cc2)no1, Cc1cccc(N2CCN(C(=O)c3nn(C)c4c3CS(=O)(=O)c3ccccc3-4)CC2)c1C -26.6%, CCCCC1CCC(C(=O)N2CC(=O)Nc3ccc(C)cc3C2c2ccc(F)cc2)CC1 (stereo unspecified) -25.2%, COc1ccc(Cn2ccc3nc(C)c(C(=O)N4CCN(c5cccc(OC)c5)CC4)cc3c2=O)cc1 -22%, COc1ccc(NC(=O)c2c(NC(=O)C(F)(F)F)sc3c2CCCCC3)cc1 -10.3%, COc1ccc(NC(=O)c2nc(S(C)(=O)=O)ncc2N(Cc2ccc(C)cc2)Cc2ccco2)cc1Cl -15%, COc1cccc(CNC(=O)c2cc(-c3ccc(Cl)s3)nc3ccccc23)c1 -7.83%, CCCCc1cc(=O)oc2cc(C)c3c(C(C)(C)C)coc3c12 -23.7%, COc1ccc(C)cc1NC(=O)N1CCN(S(=O)(=O)c2ccc3c(ccn3C)c2)CC1 -21%, Cc1ncc(CO)c2c1Oc1nc(-c3ccc(Cl)cc3)nc(SCC(=O)N3CCCCC3)c1C2 -12.4%, Cc1cccc(CSc2nc3c(sc4ccccc43)c(=O)n2CCC(=O)NC(C)C)c1 -1.78%, Cc1cccc(NC(=O)CSc2nc3ccc(NC(=O)COc4ccccc4C)cc3s2)c1 -14.6%, O=C(NCc1ccc(Cl)cc1)C1CCN(c2nn3cc(-c4ccc(F)cc4)nc3s2)CC1 11.4%, Cc1c(C(=O)OCCOc2ccccc2)[nH]c2c1C(=O)CC(c1ccc(C(C)(C)C)cc1)C2 (stereo unspecified) -20.2%, CCn1c2c(c(=O)n3ncc(C(=O)Nc4cc(Cl)ccc4OC)c13)CN(Cc1ccc(OC)cc1)CC2 -18.7%, CCCNC(=O)CCC(=O)N1Cc2cccc(OC)c2Oc2ncccc21 -6.38%, CC1CN(C(=O)NCc2ccccc2)c2cc(Cl)ccc2O1 (stereo unspecified) -8.98%, O=C(Cn1cc(C(=O)C(F)(F)F)c2ccccc21)N1CCCCCC1 -12.7%, CC1(C)N=C(SCc2ccc(F)cc2)c2ccccc2N1 6.48% [at 11.5 µM, percent change from vehicle, -100% = no light], O=C(COc1ccc2ccccc2c1)NC1CC(=O)N(c2ccc(F)cc2)C1 (stereo unspecified) -7.76%, Cc1ccccc1CN1c2ccccc2-c2nc(SCC(=O)c3ccccc3)ncc2S1(=O)=O 25.9%, CC1CCCCN1CCCNC(=O)c1cc(Sc2cccc(Cl)c2)nc2ccccc12 (stereo unspecified) -12.8%, CCOc1ccccc1NC1(c2ccccc2)C(=O)c2ccccc2C1=O -19.3%, Cc1c(CNC2CCCCC2)c(C(=O)O)c(C)n1Cc1ccccc1F -18.2%, Cc1ccccc1OCc1nc2c3cnn(-c4cccc(F)c4)c3ncn2n1 -2.9%, O=C(CSc1nc2ncccc2[nH]1)Nc1cc(F)ccc1F -6.2%, O=C(CCn1c(=O)c2cccn2c2cccnc21)NCc1ccccc1Cl -3.18%, COc1cccc(N2CCN(C(=O)C3CCCN(S(=O)(=O)c4cccc5nsnc45)C3)CC2)c1 (stereo unspecified) -40.8%, O=C(NCC(c1cccnc1)N1CCN(c2ccccc2F)CC1)C(=O)Nc1ccc(F)cc1F (stereo unspecified) -8.82%, Cc1ccc(CNC(=O)CCc2c(C)nn(-c3ccc(N4CCOCC4)nn3)c2C)cc1 -2.88%
